{"source": "the supplement of paper PMC3334620", "note": "Whole data set: some 33,000 sequences, median “E-score (-0.5 to 0.5)” near -0.017, cut for the highest 2% near 0.3. This is one part of the list.", "data": [{"molecular_target": "T1, Sut1 (UniProt P53032)", "T1 sequence": "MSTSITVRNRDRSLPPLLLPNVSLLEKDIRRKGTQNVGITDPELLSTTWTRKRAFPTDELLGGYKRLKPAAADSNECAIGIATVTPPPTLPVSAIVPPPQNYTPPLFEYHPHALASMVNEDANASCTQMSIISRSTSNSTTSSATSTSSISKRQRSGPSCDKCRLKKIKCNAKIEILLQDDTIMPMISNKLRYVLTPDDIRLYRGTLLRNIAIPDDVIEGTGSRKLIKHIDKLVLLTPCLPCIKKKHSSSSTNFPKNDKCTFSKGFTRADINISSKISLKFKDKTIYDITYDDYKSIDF", "experiment": "PBM E-score (8-mer binding enrichment) (E-score (-0.5 to 0.5)); higher = stronger / more preferred TF binding; most listed sequences are background and not binding sites", "conditions": "protein concentration: 200 nM; construct: GST-full length", "procedure,_shortened": "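For each ungapped eight-base word taken together with its reverse complement, the Universal PBM Analysis Suite assigned an E-score. Binding data came from GST-tagged yeast transcription factors, applied at about 100-200 nM, on universal all-10-mer Agilent arrays made double-stranded by primer extension. Fluorescent anti-GST marked bound protein, and scans were normalised with masliner.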", "values": [{"sequence": "CAAGGACA", "PBM E-score": 0.0967}, {"sequence": "AACAACAG", "PBM E-score": 0.0641}, {"sequence": "AGTTCAGC", "PBM E-score": -0.166}, {"sequence": "ATGAAGTA", "PBM E-score": 0.0924}, {"sequence": "TAAAAATA", "PBM E-score": 0.249}, {"sequence": "AATCTCGT", "PBM E-score": 0.00271}, {"sequence": "CCTCACAA", "PBM E-score": 0.0593}, {"sequence": "GAATATAC", "PBM E-score": 0.203}, {"sequence": "GTCGTCAA", "PBM E-score": -0.053}, {"sequence": "CGATTGGA", "PBM E-score": -0.00069}, {"sequence": "AGAGTGTC", "PBM E-score": 0.154}, {"sequence": "CTCAAAGA", "PBM E-score": -0.0703}, {"sequence": "GTATAGTA", "PBM E-score": 0.252}, {"sequence": "CAGGTCCC", "PBM E-score": -0.182}, {"sequence": "AGCACATG", "PBM E-score": -0.00767}, {"sequence": "ATATGCAT", "PBM E-score": 0.0389}, {"sequence": "ACAGAAAG", "PBM E-score": 0.0888}, {"sequence": "GAGACAAA", "PBM E-score": 0.0118}, {"sequence": "CTTAATAA", "PBM E-score": 0.217}, {"sequence": "AACAGTGC", "PBM E-score": -0.0707}, {"sequence": "CACGAGTG", "PBM E-score": -0.112}, {"sequence": "GAAATAAC", "PBM E-score": 0.128}, {"sequence": "ACCTTTAC", "PBM E-score": -0.101}, {"sequence": "GGCGGTGA", "PBM E-score": -0.198}, {"sequence": "GCAGTCGA", "PBM E-score": -0.00287}, {"sequence": "ACGGCTAA", "PBM E-score": 0.129}, {"sequence": "TATCAACA", "PBM E-score": 0.0946}, {"sequence": "CGCGCCCA", "PBM E-score": -0.0784}, {"sequence": "TAACTTAA", "PBM E-score": 0.246}, {"sequence": "ACGTGGCA", "PBM E-score": -0.242}, {"sequence": "ACCCACGG", "PBM E-score": -0.236}, {"sequence": "AGGTTGTA", "PBM E-score": 0.103}, {"sequence": "CCGCCTCG", "PBM E-score": -0.105}, {"sequence": "TTCATAAA", "PBM E-score": 0.0803}, {"sequence": "GGCGACGA", "PBM E-score": -0.256}, {"sequence": "CGGGCTTC", "PBM E-score": 0.226}, {"sequence": "ACAGGAAC", "PBM E-score": -0.0368}, {"sequence": "AAATGCGA", "PBM E-score": 0.144}, {"sequence": "ATCTCGGA", "PBM E-score": 0.368}, {"sequence": "GCATTGTA", "PBM E-score": 0.0282}, {"sequence": "GACTTATA", "PBM E-score": 0.326}, {"sequence": "AGTGTCGA", "PBM E-score": -0.0848}, {"sequence": "CAATTGTC", "PBM E-score": -0.00096}, {"sequence": "ACACTACG", "PBM E-score": 0.0648}, {"sequence": "AGGAGTCA", "PBM E-score": 0.0481}, {"sequence": "CGACGACA", "PBM E-score": -0.181}, {"sequence": "ACCACGGC", "PBM E-score": -0.166}, {"sequence": "CGTTCGAG", "PBM E-score": -0.246}, {"sequence": "AATGTCGA", "PBM E-score": 0.126}, {"sequence": "GGAAGAAC", "PBM E-score": 0.047}, {"sequence": "ACACCCCA", "PBM E-score": -0.128}, {"sequence": "CAACAGTG", "PBM E-score": 0.102}, {"sequence": "CTACTACA", "PBM E-score": 0.161}, {"sequence": "GAATTATA", "PBM E-score": 0.335}, {"sequence": "ACTATGAG", "PBM E-score": 0.129}, {"sequence": "CGATTGAG", "PBM E-score": -0.0533}, {"sequence": "ACGACTAC", "PBM E-score": -0.171}, {"sequence": "GCTGTGAC", "PBM E-score": -0.326}, {"sequence": "ATCCTCCA", "PBM E-score": -0.0869}, {"sequence": "TCTGTTCA", "PBM E-score": -0.00016}, {"sequence": "CTATAGGA", "PBM E-score": -0.082}, {"sequence": "GGAAAGAC", "PBM E-score": -0.0333}, {"sequence": "TCTATTAA", "PBM E-score": 0.218}, {"sequence": "AGTCCAAG", "PBM E-score": -0.0863}, {"sequence": "GAAATTTA", "PBM E-score": 0.213}, {"sequence": "ATAAAAGG", "PBM E-score": 0.0432}, {"sequence": "GCGACCTA", "PBM E-score": -0.0189}, {"sequence": "AGGACAAC", "PBM E-score": -0.00371}, {"sequence": "GCTGGTGA", "PBM E-score": -0.045}, {"sequence": "CCTAAGCG", "PBM E-score": 0.00784}, {"sequence": "GCAATACC", "PBM E-score": -0.0445}, {"sequence": "GGCAAAAC", "PBM E-score": -0.0896}, {"sequence": "CACGAAAC", "PBM E-score": 0.0862}, {"sequence": "CCGTGCCA", "PBM E-score": -0.116}, {"sequence": "CCGACGCG", "PBM E-score": -0.0778}, {"sequence": "TAGCAGCA", "PBM E-score": 0.0287}, {"sequence": "TAATGGGA", "PBM E-score": -0.122}, {"sequence": "ATATAAGC", "PBM E-score": 0.0532}, {"sequence": "ACATGCTC", "PBM E-score": 0.00139}, {"sequence": "CACAGAAG", "PBM E-score": -0.0414}, {"sequence": "ACGATATA", "PBM E-score": 0.0215}, {"sequence": "CCTCCAAC", "PBM E-score": -0.0551}, {"sequence": "TCATCCGA", "PBM E-score": 0.132}, {"sequence": "CTGCGGTC", "PBM E-score": -0.183}, {"sequence": "TATGACGA", "PBM E-score": 0.0527}, {"sequence": "ATCAAGCA", "PBM E-score": 0.0714}, {"sequence": "AGTCTATG", "PBM E-score": -0.11}, {"sequence": "ATCCATAG", "PBM E-score": -0.108}, {"sequence": "CCTTAAAA", "PBM E-score": 0.0539}, {"sequence": "CCAGTATA", "PBM E-score": -0.0121}, {"sequence": "ATGAAGAA", "PBM E-score": 0.108}, {"sequence": "GCTCATAC", "PBM E-score": -0.0734}, {"sequence": "GAAAGCCC", "PBM E-score": 0.108}, {"sequence": "ATACTGGC", "PBM E-score": -0.252}, {"sequence": "AACGTGGT", "PBM E-score": -0.0478}, {"sequence": "GATCCACC", "PBM E-score": -0.14}, {"sequence": "GAATTCTC", "PBM E-score": 0.129}, {"sequence": "AGAGCCCA", "PBM E-score": -0.243}, {"sequence": "GGCTGGTA", "PBM E-score": -0.125}, {"sequence": "CCGATTCC", "PBM E-score": 0.27}, {"sequence": "AGTTGTGC", "PBM E-score": -0.253}, {"sequence": "AGGTGCAG", "PBM E-score": -0.158}, {"sequence": "CCATCGGG", "PBM E-score": -0.0849}, {"sequence": "TAAGGAAA", "PBM E-score": 0.156}, {"sequence": "AGAGCCGG", "PBM E-score": -0.184}, {"sequence": "CGGTTCGA", "PBM E-score": 0.0239}, {"sequence": "ATTGTTAC", "PBM E-score": 0.141}, {"sequence": "AGCTTATG", "PBM E-score": 0.0211}, {"sequence": "CTGGCAAG", "PBM E-score": -0.12}]}]}
